Results on 63 sequences are retold here after PMC12820563.

The other results are listed elsewhere or left out. The list includes weakly bound sequences.

The assay deals with T1, MBP-FoxP3dN (UniProt Q99JB6).
T1 sequence: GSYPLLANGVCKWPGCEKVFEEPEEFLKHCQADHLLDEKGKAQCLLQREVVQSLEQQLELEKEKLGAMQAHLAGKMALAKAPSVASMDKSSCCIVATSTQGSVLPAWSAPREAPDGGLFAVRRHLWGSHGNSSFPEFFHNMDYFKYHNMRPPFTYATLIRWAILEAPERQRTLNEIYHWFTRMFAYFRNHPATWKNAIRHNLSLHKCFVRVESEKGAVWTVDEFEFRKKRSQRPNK
Kind of assay: PD-seq (MBP pull-down with sequencing). To be noted: 20 mM Tris-HCl pH 7.5, 100 mM NaCl, 1.5 mM MgCl2, 0.4 uM protein, 0.1 uM dsDNA library, 30 min, room temperature, amylose pull-down; high values mean tight binding; double strand, one strand shown.
For “GATGATTGTTCTCCCAGCTGATGAATTAGGAGCCTCGAGTAAACAAATTTTCCTAATCTTTCTGTTCAAGCGCCATCTAC”, the binding signal (RPM ratio (pull-down/input)) was determined as 0.47. With “GATGATTGTTCTCCCAGCTGATGAATTAGCCTTCTCGAGTAAACAAATTTTCCTAATCTTTCTGTTCAAGCGCCATCTAC”, the binding signal (RPM ratio (pull-down/input)) was 1.15. Then “GATGATTGTTCTCCCAGCTGATGAATTCGGTTATTCGAGTAAACAAATTTTCCTAATCTTTCTGTTCAAGCGCCATCTAC”, with 2.41; and “GATGATTGTTCTCCCAGCTGATGAATTTACGGTTTCGAGTAAACAAATTTTCCTAATCTTTCTGTTCAAGCGCCATCTAC”, with 0.786; and “GATGATTGTTCTCCCAGCTGATGAATTGGCCCTATCGAGTAAACAAATTTTCCTAATCTTTCTGTTCAAGCGCCATCTAC”, with 0.332. On to “GATGATTGTTCTCCCAGCTGATGAATTTAATAGTTCGAGTAAACAAATTTTCCTAATCTTTCTGTTCAAGCGCCATCTAC”, for which the binding signal (RPM ratio (pull-down/input)) was 3.21. The result for “GATGATTGTTCTCCCAGCTGATGAATTATCTATTTCGAGTAAACAAATTTTCCTAATCTTTCTGTTCAAGCGCCATCTAC” reads 0.352; that for “GATGATTGTTCTCCCAGCTGATGAATTGTGTCCCTCGAGTAAACAAATTTTCCTAATCTTTCTGTTCAAGCGCCATCTAC”, 2.1; that for “GATGATTGTTCTCCCAGCTGATGAATTCGTTACCTCGAGTAAACAAATTTTCCTAATCTTTCTGTTCAAGCGCCATCTAC”, 0.862. As for “GATGATTGTTCTCCCAGCTGATGAATTCCCCCGTTCGAGTAAACAAATTTTCCTAATCTTTCTGTTCAAGCGCCATCTAC”, the binding signal (RPM ratio (pull-down/input)) worked out at 0.206.

Regarding “GATGATTGTTCTCCCAGCTGATGAATTAGAGACGTCGAGTAAACAAATTTTCCTAATCTTTCTGTTCAAGCGCCATCTAC”, the binding signal (RPM ratio (pull-down/input)) came to 0.265. The result for “GATGATTGTTCTCCCAGCTGATGAATTATCGTAGTCGAGTAAACAAATTTTCCTAATCTTTCTGTTCAAGCGCCATCTAC” reads 0.377; that for “GATGATTGTTCTCCCAGCTGATGAATTTCAGACATCGAGTAAACAAATTTTCCTAATCTTTCTGTTCAAGCGCCATCTAC”, 0.31. Take “GATGATTGTTCTCCCAGCTGATGAATTCCCCCGCTCGAGTAAACAAATTTTCCTAATCTTTCTGTTCAAGCGCCATCTAC”: the binding signal (RPM ratio (pull-down/input)) turned out to be 0.214.

As for “GATGATTGTTCTCCCAGCTGATGAATTCTGACACTCGAGTAAACAAATTTTCCTAATCTTTCTGTTCAAGCGCCATCTAC”, the binding signal (RPM ratio (pull-down/input)) was found to be 2.3.

Turning to “GATGATTGTTCTCCCAGCTGATGAATTAAAGACCTCGAGTAAACAAATTTTCCTAATCTTTCTGTTCAAGCGCCATCTAC”, the binding signal (RPM ratio (pull-down/input)) amounted to 0.237.

Regarding “GATGATTGTTCTCCCAGCTGATGAATTGTAATGCTCGAGTAAACAAATTTTCCTAATCTTTCTGTTCAAGCGCCATCTAC”, the binding signal (RPM ratio (pull-down/input)) was 1.07. With “GATGATTGTTCTCCCAGCTGATGAATTCACGGCCTCGAGTAAACAAATTTTCCTAATCTTTCTGTTCAAGCGCCATCTAC”, the binding signal (RPM ratio (pull-down/input)) amounted to 0.36. In the case of “GATGATTGTTCTCCCAGCTGATGAATTTGTGTGTTCGAGTAAACAAATTTTCCTAATCTTTCTGTTCAAGCGCCATCTAC”, the binding signal (RPM ratio (pull-down/input)) was determined as 5.99. “GATGATTGTTCTCCCAGCTGATGAATTCTTACGATCGAGTAAACAAATTTTCCTAATCTTTCTGTTCAAGCGCCATCTAC”: the binding signal (RPM ratio (pull-down/input)) is 0.243. As to “GATGATTGTTCTCCCAGCTGATGAATTGCGTGGTTCGAGTAAACAAATTTTCCTAATCTTTCTGTTCAAGCGCCATCTAC”, the binding signal (RPM ratio (pull-down/input)) came out at 1.86. For “GATGATTGTTCTCCCAGCTGATGAATTTTGCAGGTCGAGTAAACAAATTTTCCTAATCTTTCTGTTCAAGCGCCATCTAC”, the binding signal (RPM ratio (pull-down/input)) is 1.54. As to “GATGATTGTTCTCCCAGCTGATGAATTAGGACGTTCGAGTAAACAAATTTTCCTAATCTTTCTGTTCAAGCGCCATCTAC”, the binding signal (RPM ratio (pull-down/input)) is 0.371. The result for “GATGATTGTTCTCCCAGCTGATGAATTTATCGAGTCGAGTAAACAAATTTTCCTAATCTTTCTGTTCAAGCGCCATCTAC” reads 0.379; that for “GATGATTGTTCTCCCAGCTGATGAATTGTGCAGATCGAGTAAACAAATTTTCCTAATCTTTCTGTTCAAGCGCCATCTAC”, 0.741.

On to “GATGATTGTTCTCCCAGCTGATGAATTTACACTGTCGAGTAAACAAATTTTCCTAATCTTTCTGTTCAAGCGCCATCTAC”, for which the binding signal (RPM ratio (pull-down/input)) is 0.576. Then “GATGATTGTTCTCCCAGCTGATGAATTCATCGGTTCGAGTAAACAAATTTTCCTAATCTTTCTGTTCAAGCGCCATCTAC”, with 0.455; and “GATGATTGTTCTCCCAGCTGATGAATTTGCTGTATCGAGTAAACAAATTTTCCTAATCTTTCTGTTCAAGCGCCATCTAC”, with 4.72; and “GATGATTGTTCTCCCAGCTGATGAATTTGGCGGCTCGAGTAAACAAATTTTCCTAATCTTTCTGTTCAAGCGCCATCTAC”, with 0.668. Then “GATGATTGTTCTCCCAGCTGATGAATTCCGCCTCTCGAGTAAACAAATTTTCCTAATCTTTCTGTTCAAGCGCCATCTAC”, with 6.3; and “GATGATTGTTCTCCCAGCTGATGAATTATTCGGTTCGAGTAAACAAATTTTCCTAATCTTTCTGTTCAAGCGCCATCTAC”, with 0.328; and “GATGATTGTTCTCCCAGCTGATGAATTGTTCATATCGAGTAAACAAATTTTCCTAATCTTTCTGTTCAAGCGCCATCTAC”, with 0.681. Then “GATGATTGTTCTCCCAGCTGATGAATTAACTGGGTCGAGTAAACAAATTTTCCTAATCTTTCTGTTCAAGCGCCATCTAC”, with 0.222; and “GATGATTGTTCTCCCAGCTGATGAATTAACTCGCTCGAGTAAACAAATTTTCCTAATCTTTCTGTTCAAGCGCCATCTAC”, with 0.264.

Take “GATGATTGTTCTCCCAGCTGATGAATTCTGTTAGTCGAGTAAACAAATTTTCCTAATCTTTCTGTTCAAGCGCCATCTAC”: the binding signal (RPM ratio (pull-down/input)) was found to be 5.31. Consider “GATGATTGTTCTCCCAGCTGATGAATTACATGCGTCGAGTAAACAAATTTTCCTAATCTTTCTGTTCAAGCGCCATCTAC”, for which the binding signal (RPM ratio (pull-down/input)) is 1.08.

With “GATGATTGTTCTCCCAGCTGATGAATTAAAGACTTCGAGTAAACAAATTTTCCTAATCTTTCTGTTCAAGCGCCATCTAC”, the binding signal (RPM ratio (pull-down/input)) amounted to 0.372. The result for “GATGATTGTTCTCCCAGCTGATGAATTATCGCGGTCGAGTAAACAAATTTTCCTAATCTTTCTGTTCAAGCGCCATCTAC” reads 0.34; that for “GATGATTGTTCTCCCAGCTGATGAATTGCGTAAATCGAGTAAACAAATTTTCCTAATCTTTCTGTTCAAGCGCCATCTAC”, 0.663. The result for “GATGATTGTTCTCCCAGCTGATGAATTAATTATTTCGAGTAAACAAATTTTCCTAATCTTTCTGTTCAAGCGCCATCTAC” reads 2.17; that for “GATGATTGTTCTCCCAGCTGATGAATTACTGTGCTCGAGTAAACAAATTTTCCTAATCTTTCTGTTCAAGCGCCATCTAC”, 0.454; that for “GATGATTGTTCTCCCAGCTGATGAATTAGGCCAGTCGAGTAAACAAATTTTCCTAATCTTTCTGTTCAAGCGCCATCTAC”, 1.21. For “GATGATTGTTCTCCCAGCTGATGAATTCGGACCCTCGAGTAAACAAATTTTCCTAATCTTTCTGTTCAAGCGCCATCTAC”, the binding signal (RPM ratio (pull-down/input)) worked out at 0.337. Consider “GATGATTGTTCTCCCAGCTGATGAATTTTGAGGGTCGAGTAAACAAATTTTCCTAATCTTTCTGTTCAAGCGCCATCTAC”, for which the binding signal (RPM ratio (pull-down/input)) is 0.383. The result for “GATGATTGTTCTCCCAGCTGATGAATTTCGGCGTTCGAGTAAACAAATTTTCCTAATCTTTCTGTTCAAGCGCCATCTAC” reads 1.37; that for “GATGATTGTTCTCCCAGCTGATGAATTCCGAATATCGAGTAAACAAATTTTCCTAATCTTTCTGTTCAAGCGCCATCTAC”, 0.493. Take “GATGATTGTTCTCCCAGCTGATGAATTGAGTTCCTCGAGTAAACAAATTTTCCTAATCTTTCTGTTCAAGCGCCATCTAC”: the binding signal (RPM ratio (pull-down/input)) came out at 0.624. For “GATGATTGTTCTCCCAGCTGATGAATTTGTTGGATCGAGTAAACAAATTTTCCTAATCTTTCTGTTCAAGCGCCATCTAC”, the binding signal (RPM ratio (pull-down/input)) came to 5.2.

With “GATGATTGTTCTCCCAGCTGATGAATTTTGCTGCTCGAGTAAACAAATTTTCCTAATCTTTCTGTTCAAGCGCCATCTAC”, the binding signal (RPM ratio (pull-down/input)) is 1.31.

For the sequence “GATGATTGTTCTCCCAGCTGATGAATTGGCTTCGTCGAGTAAACAAATTTTCCTAATCTTTCTGTTCAAGCGCCATCTAC”, the binding signal (RPM ratio (pull-down/input)) amounted to 0.498.

With “GATGATTGTTCTCCCAGCTGATGAATTCTGGGGGTCGAGTAAACAAATTTTCCTAATCTTTCTGTTCAAGCGCCATCTAC”, the binding signal (RPM ratio (pull-down/input)) stood at 0.456.

Consider “GATGATTGTTCTCCCAGCTGATGAATTATTCGAATCGAGTAAACAAATTTTCCTAATCTTTCTGTTCAAGCGCCATCTAC”, for which the binding signal (RPM ratio (pull-down/input)) turned out to be 0.32. The result for “GATGATTGTTCTCCCAGCTGATGAATTCTGTCAATCGAGTAAACAAATTTTCCTAATCTTTCTGTTCAAGCGCCATCTAC” reads 0.668.

For “GATGATTGTTCTCCCAGCTGATGAATTTCTATCATCGAGTAAACAAATTTTCCTAATCTTTCTGTTCAAGCGCCATCTAC”, the binding signal (RPM ratio (pull-down/input)) was found to be 0.435. Consider “GATGATTGTTCTCCCAGCTGATGAATTCACTAATTCGAGTAAACAAATTTTCCTAATCTTTCTGTTCAAGCGCCATCTAC”, for which the binding signal (RPM ratio (pull-down/input)) was determined as 0.292. The result for “GATGATTGTTCTCCCAGCTGATGAATTCATTCCCTCGAGTAAACAAATTTTCCTAATCTTTCTGTTCAAGCGCCATCTAC” reads 0.308. Then “GATGATTGTTCTCCCAGCTGATGAATTAAACACCTCGAGTAAACAAATTTTCCTAATCTTTCTGTTCAAGCGCCATCTAC”, with 0.624; and “GATGATTGTTCTCCCAGCTGATGAATTGCTGAAGTCGAGTAAACAAATTTTCCTAATCTTTCTGTTCAAGCGCCATCTAC”, with 0.352; and “GATGATTGTTCTCCCAGCTGATGAATTTTTAACGTCGAGTAAACAAATTTTCCTAATCTTTCTGTTCAAGCGCCATCTAC”, with 0.304. With “GATGATTGTTCTCCCAGCTGATGAATTGATGAATTCGAGTAAACAAATTTTCCTAATCTTTCTGTTCAAGCGCCATCTAC”, the binding signal (RPM ratio (pull-down/input)) was 0.694. As for “GATGATTGTTCTCCCAGCTGATGAATTTCACTATTCGAGTAAACAAATTTTCCTAATCTTTCTGTTCAAGCGCCATCTAC”, the binding signal (RPM ratio (pull-down/input)) turned out to be 0.422. Take “GATGATTGTTCTCCCAGCTGATGAATTGATCCGCTCGAGTAAACAAATTTTCCTAATCTTTCTGTTCAAGCGCCATCTAC”: the binding signal (RPM ratio (pull-down/input)) was found to be 0.273.

On to “GATGATTGTTCTCCCAGCTGATGAATTAATGGAATCGAGTAAACAAATTTTCCTAATCTTTCTGTTCAAGCGCCATCTAC”, for which the binding signal (RPM ratio (pull-down/input)) was 0.247.
